Measurements from the supplement of paper PMC11417369.
The list shows a part of the results.

test system: PfHDP1 homeodomain (GST-tagged); assay: gcPBM binding intensity (ln(normalized median fluorescence intensity)); higher = stronger DNA binding
Outline: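 GST-tagged P. falciparum DNA-binding domains, expressed in E. coli (about 25 μg on average), were applied for 1 h to an Agilent 4 × 180k array of primer-extended double-stranded 36-bp intergenic genomic probes plus negative controls. The binding buffer was 1× PBS with 1% milk, 0.2 mg/ml BSA, 0.5% salmon testes DNA and 0.03% Triton X-100. Bound protein was detected with Alexa488 anti-GST antibody and scanned at 488 nm. Binding intensity is the highest Masliner-normalised natural-log median intensity across replicate spots of either probe orientation.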

Row | Sequence | gcPBM binding intensity (ln)
1 | TACACATGTTTAAAATGTACGTTTTATAACACACAC [XGTACX_site8229] | 7.39
2 | AAAAAAAATTAAGCATGTATAAATATATATATATAT [CACACA_negctrl_site1540] | 9.02
3 | TTTTACAAGTATTGATAAATAAGAAATATATAAAAT [CACACA_negctrl_site529] | 6.35
4 | GTGTATTTTGTGCGCACACACATGCAAAAAGAAATA [CACACA_site6660] | 9.54
5 | ATCATTTTTAATAAATGTACAAGTTTTAAAAAAAAA [XGTACX_site7340] | 6.02
6 | AAAAAAACAACATGCACACGCACACCCAAAAAAAGC [CACACA_site72] | 8.81
7 | GTAATCCACAAACACACACACATACACATATATATA [CACACA_site2728] | 7.3
8 | ATATATTACAATATATGTACTTAATTTGCTTAAATA [XGTACX_site7912] | 6.21
9 | AGAGGAAAAATAAAAGGAAAAAAGAAAATAATATTG [CACACA_negctrl_site852] | 6.2
10 | ATAATATTTTAGAGCAGTACACTTTTATATTTATTG [XGTACX_site5728] | 6.67
11 | TAAAACAGAATGAGGAGTACAAAAAGAAGAAAAGGG [XGTACX_site1246] | 7.31
12 | AAAATAAATATTACATGTACATATATATATATATAT [XGTACX_site8492] | 9.27
13 | TCCATAAATAATTGTAGTACACATACTATGTGACAT [XGTACX_site7268] | 6.48
14 | AAAAGTAAAAAAAGCACACACGAAAAAAAATAAAAA [CACACA_site5264] | 6.72
15 | TATTAAAAAAAAAAATAAAAAAATAAAATAAAATAA [CACACA_negctrl_site580] | 6.36
16 | AACTATAAAAGTTTTACACACTGTTTTTAAATAATG [CACACA_site7686] | 6.62
17 | TTATGCATAAAAGGTGGTACTCCGTATATACATTCT [XGTACX_site4354] | 6.62
18 | ATATATATATATATGTGTACATATAAGATAGAAGAA [XGTACX_site3198] | 9.31
19 | TATTTATTTATAAATGCATGTCGCTCTTTTTATTAC [TGCATGCA_site626] | 6.36

Row | Sequence | gcPBM binding intensity (ln)
20 | ATTATTATAGATATAACACACATAATTACATACTTA [CACACA_site6837] | 6.2
21 | AATATATCATAATGATGTACAAGTAAAACCGTTACA [XGTACX_site4280] | 6.56
22 | AAAAACTTATATGATACACACGATAAACAAAATAAA [CACACA_site1039] | 6.73
23 | TTTGTGCCTATAAATTAACACACAGAAATATATAGA [CACACA_site8175] | 6.35
24 | ATTCTTTTAAACAGTACACACACACCGATATATATA [CACACA_site8213] | 7.2
25 | AATATATATATATATACATGCATATATTCCTTCCTT [TGCATGCA_site890] | 6.65
26 | TAACACATAAATAAATATATACATATATATAAAATA [CACACA_negctrl_site375] | 6.36
27 | ATAAAATAAAATTGGTGTACTTTTGATAAAATAAAA [XGTACX_site4264] | 6.17
28 | GATCTATATATCATTACACACTTGAATTACTTAAAA [CACACA_site21] | 6.48
29 | CAAAAATACATTATAATAATATGCACAATAATAAAT [XGTACX_negctrl_site263] | 9.11
30 | TATATTTACTCTAAGTGTACATATTATTTTATAATA [XGTACX_site2046] | 6.22
31 | TTTTTTTTTTTTATTTGTACACATTTTCATATTTTT [XGTACX_site4406] | 6.48
32 | TATATATATATGTGCACACATAAAGATATTATTTTT [CACACA_site3733] | 10.1
33 | CACCCTTTGTTTTAGAGTACATATGTATATACGTAA [XGTACX_site7964] | 6.75
34 | GATTAAAATCAAAGGTGTACGCACAAATAAGTCCCA [XGTACX_site4360] | 6.65
35 | TATATATATTTATGTACACACATATATACCTTTCAT [CACACA_site5479] | 6.74
36 | ACAAAATTTACAAAATGTACAAAGTATGTGTTTTAT [XGTACX_site6462] | 6.13
37 | TTTCCGGTAATATGGAGATATATGTGGGTTTTTTTT [GTGCAC_negctrl_site374] | 6.41
38 | ATATTTTTTTTTTTCACACACATTTATATTGTATTA [CACACA_site5695] | 6.84

Row | Sequence | gcPBM binding intensity (ln)
39 | AGAAAAAAGAGGGATACACACAAACATATATTTATA [CACACA_site7122] | 6.5
40 | ATAATATTTTATTATACATGCAAATTATTATATATA [TGCATGCA_site40] | 6.25
41 | TTTCTTTGTATTTATAGTACATATTTTAATAACTGC [XGTACX_site6673] | 6.26
42 | TAAAAATTAAAAAGGGTGCAAAAAAAAAAAAAAAAA [GTGCAC_site9733] | 8.23
43 | TATTAATTATAAGATGCATGTGCAAAAATATGTTCC [TGCATGCA_site51] | 10.2
44 | TTATTATTATGATTATTATGATGATTATACAACTGT [TGCATGCA_negctrl_site241] | 6.26
45 | AATATACATAACAAGGTGCAAAAAATATTGTTCATA [GTGCAC_site9499] | 9.48
46 | AAAAGACATTTTTTTTTATAAATACACACGTACGTG [TGCATGCA_negctrl_site281] | 6.49
47 | AGGAGGAACAAACAAAACAATAAAAATTATAATAAA [GTGCAC_negctrl_site206] | 6.65
48 | TTCAAAGACACAATCACACACATACATAAATATACA [CACACA_site687] | 6.68
49 | TATTAAAATATTCTCACACACCAAAATATGTATGTA [CACACA_site6565] | 6.21
50 | AAAAAAAAAAAAAAAAAAAGAAAAGAAAATAGGGTT [GTGCAC_negctrl_site421] | 6.72
51 | ATTATATTAATTTATAGTACAATATTTATATATATG [XGTACX_site4668] | 6.36
52 | TATATATTACTTTTTTGTACGAATTTTACAACTACG [XGTACX_site3473] | 6.65
53 | TGTCTTATTTATATTACACACTATATGAAAAAATAT [CACACA_site6807] | 6.52
54 | AAAGGATATATCCAGAGTACATATTCTGTGTAATAC [XGTACX_site1547] | 6.73
55 | ATAATTGTTTCTTTCTCCTTTTTATTTCATTTTAAA [CACACA_negctrl_site964] | 6.61
56 | CACAAAAAAAATTATACACACACACCCATATATATA [CACACA_site8255] | 7
